Source: the supplement of paper PMC4166925
± gives the standard deviation of the averaged measurements. Over roughly 33,000 sequences, “E-score (dimensionless, -0.5 to 0.5)” has its median near -0.049; the highest 2% begin near 0.37. Some of the results follow.

test system: T1, PmTbr T-box DNA-binding domain (GST fusion); experiment: PBM E-score of 8-mer (E-score (dimensionless, -0.5 to 0.5)); Tbr is Tbrain of the sea star Patiria miniata (Pm) or the sea urchin Strongylocentrotus purpuratus (Sp); higher = stronger binding preference; most listed sequences are background and not binding sites; details: the construct has about 5 more residues each side
T1 sequence: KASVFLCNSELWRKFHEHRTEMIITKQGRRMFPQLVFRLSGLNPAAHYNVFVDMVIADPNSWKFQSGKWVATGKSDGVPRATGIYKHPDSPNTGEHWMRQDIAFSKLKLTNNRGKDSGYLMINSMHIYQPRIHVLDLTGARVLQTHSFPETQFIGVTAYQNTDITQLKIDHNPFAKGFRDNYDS
Description: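 Universal protein-binding microarray (Agilent AMADID 016060, 60-bp probes with a 35-bp variable region) incubated with 200 nM GST-fused Patiria miniata Tbr T-box DNA-binding domain (residues 272-466) in PBS pH 7.5. Scored for every ungapped 8-mer (given with its reverse complement) by the Universal PBM Analysis Suite as E-score (modified Wilcoxon-Mann-Whitney enrichment, range -0.5 to 0.5; >0.45 counts as bound) and Z-score of median probe intensity. Two replicate arrays (datasets 1 and 2).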

Sequence	PBM E-score of 8-mer
AGGAGACT	-0.2111 ± 0.0016
AACGTTGG	0.0329 ± 0.034
CACGCTCA	0.164 ± 0.0079
ATGTGCGA	0.4691 ± 0.0032
CGTGCGCC	-0.0828 ± 0.047
ATTGGTCC	-0.263 ± 0.023
CACCAAGA	0.198 ± 0.005
ATGGCGGA	-0.225 ± 0.027
GCGGATAC	-0.264 ± 0.031
GAAATTTC	-0.00541 ± 0.12
AGGACCGC	-0.2203 ± 0.0013
GAGTACTA	-0.414 ± 0.0024
CGACTACA	-0.074 ± 0.092
AGCTATAG	-0.0906 ± 0.024
AGCAAAGA	-0.052 ± 0.038
GGGGGTAC	-0.101 ± 0.025
AGTTGAAT	-0.113 ± 0.013
AAAGAGCT	-0.0872 ± 0.017
CAGCTCGC	0.208 ± 0.022
ATGGACTG	-0.165 ± 0.016
CTGAAAGC	-0.197 ± 0.025
TCCACCAA	-0.0779 ± 0.028

Sequence	PBM E-score of 8-mer
AATTTCTC	0.0054 ± 0.061
CGACAACC	0.195 ± 0.048
AACCAAGA	-0.283 ± 0.018
AAGGGATA	-0.189 ± 0.0011
GCAAGCGA	-0.0021 ± 0.006
GATTTATA	-0.131 ± 0.023
CTGGCTAC	-0.191 ± 0.018
CGGGCTGC	-0.205 ± 0.06
CACATATG	0.293 ± 0.02
ACAATCCT	-0.0218 ± 0.045
ATGTGTCA	0.4653 ± 0.0037
AACCCTGC	0.072 ± 0.041
CGTAGCTA	-0.0603 ± 0.07
GTACCTAA	-0.248 ± 0.013
ACCCGCCC	-0.0219 ± 0.026
AACTCTGG	-0.0696 ± 0.058
AATAATCC	-0.267 ± 0.086
ACGTCTTG	0.016 ± 0.0039
TATCCACA	0.082 ± 0.0092
CTATGGAC	-0.166 ± 0.017
ATTGCTGG	-0.121 ± 0.086
AGTTTCCA	-0.0589 ± 0.02

Sequence	PBM E-score of 8-mer
GTTCCTCA	-0.0492 ± 0.091
AGCAATAG	0.0417 ± 0.012
AACATACA	-0.125 ± 0.025
CGGCTTAA	-0.0464 ± 0.01
ACCGTGCG	0.139 ± 0.038
AGAGGCTA	-0.0399 ± 0.046
GTAGGCAA	0.0337 ± 0.07
ACGTCGTG	0.0723 ± 0.029
GATCTACC	-0.169 ± 0.016
CCCCACAG	-0.0866 ± 0.014
GACTCCTA	-0.304 ± 0.027
AGCGTATG	-0.212 ± 0.024
AGCATCGC	0.00662 ± 0.065
AAACGTTG	-0.22 ± 0.042
CCCGGGTA	-0.077 ± 0.018
CTTAGAAG	-0.0817 ± 0.0036
AACGACTT	0.169 ± 0.051
CATTCTAC	0.0187 ± 0.0071
CAGTCATG	-0.121 ± 0.032
CAATACTA	-0.0307 ± 0.0042
AACAAGCG	0.0684 ± 0.037
TACCGAAA	-0.246 ± 0.014

Sequence	PBM E-score of 8-mer
TACACAGA	-0.274 ± 0.054
CCTTACAC	0.307 ± 0.017
AAGAAGCT	-0.11 ± 0.044
ATGCTTAG	-0.105 ± 0.051
CTTAGCGA	0.184 ± 0.025
GCGTTGCC	0.203 ± 0.034
AGCGCCTG	0.182 ± 0.02
GACCATTA	0.0379 ± 0.008
ACTTACAC	0.249 ± 0.014
CAATGTCG	0.119 ± 0.014
AATGAGTC	-0.0656 ± 0.019
GGACGCCA	-0.0634 ± 0.11
CATAGGGG	-0.127 ± 0.015
GCCGACCA	-0.153 ± 0.093
ACAAATGA	-0.112 ± 0.006
AGACTACT	-0.2779 ± 0.00068
CGAGCCGC	0.0246 ± 0.042
ATCCTAAC	0.055 ± 0.015
AGGTAAGG	0.00624 ± 0.019
TGAGCTAA	-0.0125 ± 0.0044
AGAGACAA	-0.133 ± 0.017
GATAGGCA	-0.121 ± 0.014

Sequence	PBM E-score of 8-mer
CAAACTCC	-0.0241 ± 0.05
GGAGCTAA	-0.211 ± 0.029
AACATGGT	0.0819 ± 0.038
ATGGTCAG	-0.181 ± 0.026
GAACTGGA	-0.175 ± 0.037
TATGAAAA	-0.1 ± 0.13
CGCGTGAA	0.398 ± 0.033
AGGATTAA	-0.0767 ± 0.062
GACTTGAC	0.137 ± 0.022
AATGAAGC	-0.208 ± 0.076
CCCTGTCC	-0.0624 ± 0.018
CCGTCTTA	-0.126 ± 0.05
AATCGCTG	-0.0604 ± 0.024
CGAATGTA	-0.0853 ± 0.024
GCGGCAAA	0.18807 ± 7.8e-05
AATCCCCC	-0.301 ± 0.024
ATGTAATC	-0.148 ± 0.016
CGCCATTA	0.0423 ± 0.0011
CTGCAAAC	-0.0304 ± 0.00092
CAGCAAGA	-0.0656 ± 0.0013
CTCCTAAA	-0.217 ± 0.0066
CAATATTA	-0.137 ± 0.021
